“And” between values parts separate entries of the source, which are not always exact repeats. Equal entries are not always repeated. About 230 (0.21%) of roughly 110,000 compounds showed an effect of 50% or more. The list shows a part of the results.
The compounds below were run against DPAP1 (Plasmodium falciparum, UniProt Q8IIJ9) (assay: primary screen, percent inhibition; read by cleavage of a fluorogenic dipeptide substrate; higher = more effect of the substance).
Parameters: species or system P. falciparum D10 trophozoite lysates; single well
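Note: 30 min substrate incubation versus DMSO and 10 µM JCP410 controls.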

Chain of DPAP1 (Q8IIJ9 whole entry, looked up): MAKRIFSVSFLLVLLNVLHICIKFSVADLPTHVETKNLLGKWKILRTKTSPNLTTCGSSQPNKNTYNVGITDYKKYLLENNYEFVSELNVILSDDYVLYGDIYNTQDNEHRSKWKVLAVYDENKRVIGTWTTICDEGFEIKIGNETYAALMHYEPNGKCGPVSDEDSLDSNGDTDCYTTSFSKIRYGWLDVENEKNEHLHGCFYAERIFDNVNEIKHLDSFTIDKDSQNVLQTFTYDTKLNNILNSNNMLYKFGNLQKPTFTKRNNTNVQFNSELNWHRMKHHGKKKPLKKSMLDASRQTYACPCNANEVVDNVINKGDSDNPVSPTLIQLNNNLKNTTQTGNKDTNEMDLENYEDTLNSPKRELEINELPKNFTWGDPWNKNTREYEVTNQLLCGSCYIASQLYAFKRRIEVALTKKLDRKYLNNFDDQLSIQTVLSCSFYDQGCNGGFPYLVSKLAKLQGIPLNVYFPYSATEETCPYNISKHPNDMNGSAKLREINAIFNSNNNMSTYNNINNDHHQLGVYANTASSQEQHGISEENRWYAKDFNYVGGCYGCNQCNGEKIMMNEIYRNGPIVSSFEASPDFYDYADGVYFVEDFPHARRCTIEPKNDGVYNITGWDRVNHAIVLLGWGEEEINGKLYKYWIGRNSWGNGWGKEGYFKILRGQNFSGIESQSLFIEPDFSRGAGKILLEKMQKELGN

Structure (SMILES) | % Inhibition @ 10 uM
CC(C)C(NCc1c(Cl)cccc1Cl)C(=O)O (stereo not drawn) | -1.99%
COc1ccccc1NC(=O)Cn1nc(C(F)(F)F)cc1C1CC1 | 4.83%
CC(=O)Nc1sc2c(c1C(=O)O)CC(C)(C)OC2 | 0.0539%
CCN1CCN(C(=O)/C(=C/c2cccs2)NC(=O)c2ccccc2)CC1 | 4%
Nc1nc(NC23CC4CC(CC(C4)C2)C3)nc(-c2cc(Cl)ccc2O)n1 | -6.02%
O=C(NCc1ccccc1Cl)C1CCCN1S(=O)(=O)c1ccc(-c2ccc(O)nn2)s1 (stereo not drawn) | 0.0065%
Cc1ccc(N2C(=O)CC(N3CCN(C)CC3)C2=O)cc1 (stereo not drawn) | 2.01%
COc1ccc2nc(C)cc(Nc3ccc(N4CCN(C)CC4)cc3)c2c1 | 5.16%
Cc1cccc(OCCCC(=O)Nc2nnc(C(C)C)s2)c1 | -4.93%
CC(C)(C)C1CCc2c(sc(NC(=O)c3ccc(Br)o3)c2C(N)=O)C1 (stereo not drawn) | -1.43%
O=C(NC1CCc2ccccc21)c1cc2c(s1)CCC2 (stereo not drawn) | -1.07%
CCOC(=O)C1CCN(Cc2ccc(F)c(Br)c2)CC1 | 1.63%
O=C1/C(=C/c2ccccc2)N=C(NCc2ccccc2)N1c1ccccc1 | -5.23%
CC1CCC(NC(=O)Cn2ncc3c4ccccc4n(C)c3c2=O)CC1 (stereo not drawn) | -5.72%
CS(=O)(=O)N(CC(=O)N1CCN(c2ccccc2)CC1)c1cccc2ccccc12 | -11.7%
Cc1ccccc1NC(=O)c1c(N)sc2c1CCC2 | 30.2%
CC(=O)N1CCN(Cc2c(F)cccc2F)CC1 | 3.48%
N#Cc1c(N)nc(SCC(=O)c2ccc(Br)cc2)c(C#N)c1-c1ccc(O)cc1 | 5.64%
CN1C(=O)NC(=O)/C(=C/c2ccc(I)o2)C1=O | 1.42%
CC(c1ccccc1)N1C(=O)c2ccc(C(=O)c3ccc(C(=O)O)cc3)cc2C1=O (stereo not drawn) | 5.92%
COc1ccccc1C(=O)Nc1ccc(-c2nc3cc(C)ccc3o2)cc1 | -7.87%
CCOC(=O)c1c(C)c(-c2ccccc2)n(CC(=O)N2CCC(C)CC2)c1C | 7.84%
Cc1nn(C)cc1CNC(=O)c1cc2nc(-c3ccc(Cl)cc3)cc(C(F)(F)F)n2n1 | -8.33%
CCN(CC)CCCOc1ccccc1Br | -1.64%
CC(C)N1C(=O)/C(=C\c2ccccc2O)S/C1=N/c1ccccc1 | 43.5%

Structure (SMILES) | % Inhibition @ 10 uM
CC1=C(C(=O)Nc2cccc(F)c2)C(c2ccsc2)C2=C(O)CC(C)(C)CC2=N1 (stereo not drawn) | -2.64%
COc1ccc(-c2noc(CC(=O)N3CCN(Cc4ccc5c(c4)OCO5)CC3)n2)cc1 | 5.34%
CC1CC(C)CN(S(=O)(=O)N2CCCC(C(=O)NCCN3CCCC3)C2)C1 (stereo not drawn) | 0.514%
Cc1nc(=O)c(-c2ccccc2)c(C)n1-c1cccc(C(=O)O)c1 | -1.85%
CCOc1cc(/C=C2/NC(=O)N(Cc3ccccc3F)C2=O)cc(Cl)c1OCC(=O)O | 4.85%
O=c1n(Cc2ccccc2)c2ccc(Cl)cc2n1Cc1ccccc1 | -1.62%
CCc1[nH]nc2c1C(c1ccc(OCc3ccccc3)c(OC)c1)C(C#N)=C(N)O2 (stereo not drawn) | -0.99%
CCCCc1nc2ccccc2n1Cc1ccccc1 | 2.73%
COc1ccc(-c2cn3nc(N4CCC(C(=O)NC(C)C)CC4)sc3n2)cc1 | 3.21%
CC(C)(C)NC(=O)CN1c2cccc3cccc(c23)S1(=O)=O | -2.54%
COc1ccccc1NC(=O)C1=C(C)Nc2nc(CCCO)nn2C1c1cccc(F)c1 (stereo not drawn) | -5.13%
N#CC1(NC(=O)[C@H](CC2CCCCC2)NC(=O)c2cccc(-c3cccc(OC(F)(F)F)c3)c2)CCS(=O)(=O)CC1 | 0.079%
O=C(c1cccc(C(F)(F)F)c1)N1CC(=O)N(CCc2ccccc2)C(=O)C1 | 16.4%
O=C(O)c1sc(Cl)cc1/C=C\c1ccccc1 | -2.45%
CC(=O)NC(c1ccc(F)cc1)c1cccnc1 (stereo not drawn) | -0.312%
FC(F)(F)c1cc(-c2ccccc2)nc(N2CCN(Cc3ccccc3)CC2)n1 | 0.287%
CCC(Cc1ccccc1)NC(=O)C1CCN(S(=O)(=O)c2c(C)n[nH]c2C)CC1 (stereo not drawn) | -5.37%
O=C(c1ccc(O)cc1)c1ccccc1O | 16.3%
Cc1cccc(OCCCCN2CCNCC2)c1 | 1.8%
CC1CCCCC1NC(=O)C1(S(=O)(=O)c2ccc(Cl)cc2)CC1 (stereo not drawn) | 0.559%
COc1ccc(-n2c(CCC(=O)O)ccc2-c2ccccc2)cc1 | 1.31%
COc1ccc(-c2coc3cc(OCc4ccc(Br)cc4)cc(O)c3c2=O)cc1OC | -2.91%
CCCCNC(=O)c1nn(C)c2c1COc1ccccc1-2 | -1.72%
O=C1NC(=O)/C(=C\c2cccn2-c2ccccc2)N1 | -6.86%
Cc1cccc(-n2c(C)cc(C(=O)C(=O)Nc3nccs3)c2C)c1C | -4.68%

Structure (SMILES) | % Inhibition @ 10 uM
COc1ccc(OC)c(NC(=O)c2ccc(Br)o2)c1 | -2.8%
COc1cccc(C2C(C#N)=C(N)N(c3nc[nH]n3)C3=C2C(=O)CCC3)c1 (stereo not drawn) | -3.16%
COc1ccc(C(=O)CCN(C)C)cc1 | 3.82%
CC(=O)Nc1ccc(NC(=O)CSc2nc3ccc(NC(=O)c4ccc(C)cc4)cc3s2)cc1 | 4.67%
CN(C(=O)CN1C(=O)CN=C(c2ccccc2)c2c1sc1c2CCCC1)C1CCCCC1 | -5.37%
CCOc1cc(C2c3c(oc4ccc(F)cc4c3=O)C(=O)N2c2nnc(CC(C)C)s2)ccc1O (stereo not drawn) | 32.6%
Clc1ccc(Sc2ncnc3sc4c(c23)CCCC4)cc1 | -1.29%
CCC1C(=O)N=C(SCC(=O)Nc2ccccn2)NC1=O (stereo not drawn) | -7.34%
CCC(C)Nc1sc(S(C)(=O)=O)nc1S(=O)(=O)c1ccc(Cl)cc1 (stereo not drawn) | -0.522%
CCOC(=O)C1=C(C)N=c2s/c(=C\c3ccccc3)c(=O)n2C1c1ccc(N(C)C)cc1 (stereo not drawn) | 3.61%
Cc1[nH]nc2c1C(c1cc(Cn3cnc4ccccc43)cs1)C(C#N)=C(N)O2 (stereo not drawn) | -0.0678%
Cc1cc(=O)n2ccc(CN3CCCCC3)c(O)c2n1 | 2.38% and 5.2%
CC1(C)OC(=O)C(/C=N/CC(=O)O)=C(O)O1 | -5.15%
CCOc1ccc2nc(NC(=O)c3c(F)cccc3F)sc2c1 | 0.528%
CCOC(=O)c1cc(S(=O)(=O)NCCc2sccc2C)cn1C | 3.92%
Cc1ccc(NC(=O)c2ccccc2NC(=O)C2CC=CCC2C(=O)O)cc1 (stereo not drawn) | -0.95%
CC(C)C1C(C#N)=C(N)OC2=C1C(=O)CC(C)(C)C2 (stereo not drawn) | -4.33%
COc1ccc(C2=N/C(=C\c3cc(Br)cs3)C(=O)O2)cc1OC | -0.48%
COc1ccc(C(=O)N2CCN(c3ccccc3)CC2)cc1 | -1.62%
COCCNC(=O)c1ccc(CS(=O)Cc2ccc(C)cc2)o1 (stereo not drawn) | 2.03%
Cc1nn(C)cc1C(=O)N1CCN(C(=O)c2ccco2)CC1 | -3.75%
CC1=C(C(=O)OCc2ccccc2)C(c2cccc(Br)c2)NC(=O)N1 (stereo not drawn) | 1.38%
COc1cccc(OC)c1C(=O)Nc1cccc(C)c1 | -1.77%
CN(Cc1ccccc1)Cc1nc(=O)c2ccccc2n1C | -2.77%
CC12CC3(C)CC(N)(C1)CC(C(=O)O)(C2)C3 | 2.36%

Structure (SMILES) | % Inhibition @ 10 uM
Cn1c(=O)c2nc(-c3ccccc3)c(O)nc2n(C)c1=O | 7.14%
COc1cc(C2NC(C(=O)O)CS2)ccc1OCc1ccccc1C (stereo not drawn) | 2.16%
NC(=O)C1CCN(CC2CC=CCC2)CC1 (stereo not drawn) | -0.603%
O=C(O)CCS(=O)(=O)Cc1cccc(Cl)c1 | -1.99%
CCOc1nc(C)c(/C=C/C(=O)O)c(OCC)n1 | -1.2%
COc1ccc(N(C(C)C(=O)NCc2ccc(Cl)cc2Cl)S(C)(=O)=O)cc1 (stereo not drawn) | -0.992%
O=C(O)C1CC=CCC1C(=O)Nc1ccc(Cl)c(Cl)c1 (stereo not drawn) | -5.49%
O=C1CN(C(=O)/C=C/c2ccccc2)CCN1 | -0.386%
CC(C)(C)SCCNC(=O)c1ccc(C2SCC(=O)N2CCc2ccccc2)cc1 (stereo not drawn) | -5.1%
CC1=C(C(=O)Nc2ccc(C)cc2)C(c2cccs2)NC(=O)N1C (stereo not drawn) | -2.35%
COC(=O)c1ccc(CO)nc1 | -1.77%
COc1ccc(-c2nc3s/c(=C\c4ccc(C)o4)c(=O)n3n2)cc1 | 0.487%
CCOC(=O)C1=C(C)N=c2s/c(=C\c3ccccc3Cl)c(=O)n2C1c1ccc(N(C)C)cc1 (stereo not drawn) | 1.27%
Cc1c2cnn(CC(=O)NCCN3CCOCC3)c(=O)c2c(C)n1Cc1ccccc1Cl | 1.22%
CCC(Cc1ccccc1)NCc1c(C(=O)O)n(Cc2ccccc2)c2ccccc12 (stereo not drawn) | 0.0662%
CCCCn1cnc2cc(NCc3ccncc3)ccc21 | -4.49%
CCOC(=O)N1CCN(C(=O)c2cc(-c3cccs3)[nH]n2)CC1 | -3.53%
COc1ccc2nc(NC(=O)CCc3nc(-c4ccccc4F)no3)sc2c1 | 5.1%
O=C(C1=C(O)C(=O)N(c2ccc(O)cc2)C1c1cccc(F)c1)c1ccccc1 (stereo not drawn) | 1.64%
COC(=O)c1ccc(-n2c(C)cc(C(=O)CN3CCC(C)CC3)c2C)cc1 | -2.78%
COCCN1C(=O)C(O)=C(C(=O)c2ccc(OC)cc2C)C1c1ccc(C(C)(C)C)cc1 (stereo not drawn) | 3.3%
CCOc1ccccc1C1C2=C(O)CCCC2=Nc2nc3ccccc3n21 (stereo not drawn) | 1.73%
O=C(NC(Cc1ccccc1)C(=O)O)/C(=C/c1ccc2c(c1)OCO2)NC(=O)c1ccco1 (stereo not drawn) | 2.3%
N#CCSc1nc(-c2ccccc2)nc2ccc(Cl)cc12 | -5.23%

Reference: paper PMC6919601, “Identification of Plasmodium dipeptidyl aminopeptidase allosteric inhibitors by high throughput screening” (PLoS ONE, 2019)
